# Measured values: PubChem BioAssay AID1476 (National Center for Advancing Translational Sciences (NCATS), 2009)
# Screen size: about 200,000 compounds; about 4,500 (2.2%) were called active. The shares of active, inactive and inconclusive entries below differ from those in the screen. Calls come from the whole dose curve; as a rule, active = well fitted inhibition curve with a large enough effect; inconclusive = small, poorly fitted or top-dose-only effect, or effect the other way; inactive = flat fitted curve, though single readings scatter. Potencies of inconclusive entries are doubtful fits and often do not repeat.
# Target: Cruzipain (Trypanosoma cruzi) (UniProt P25779)
# Experiment: qHTS Assay for Promiscuous and Specific Inhibitors of Cruzain (without detergent); note: nearly all actives have a fitted effect of over 40% in size;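 for max response, negative = inhibition: plate controls were enzyme without inhibitor for no effect and buffer without enzyme for full effect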
# Settings: purified cruzain, Z-FR-AMC fluorescence, no detergent
# Method in brief: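 Purified cruzain at 1.5 nM, pre-incubated 15 min with compound at room temperature in 100 mM sodium acetate pH 5.5, 5 mM DTT, 0.00005% Triton X-100. Reaction started with 2 uM Z-FR-AMC; AMC fluorescence increase over 60 s gives rate.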
# Potency is the fitted concentration of half-maximal effect; tags give direction and shape of the fitted curve.
# Sequence of UniProt P25779 (P25779 whole entry, looked up): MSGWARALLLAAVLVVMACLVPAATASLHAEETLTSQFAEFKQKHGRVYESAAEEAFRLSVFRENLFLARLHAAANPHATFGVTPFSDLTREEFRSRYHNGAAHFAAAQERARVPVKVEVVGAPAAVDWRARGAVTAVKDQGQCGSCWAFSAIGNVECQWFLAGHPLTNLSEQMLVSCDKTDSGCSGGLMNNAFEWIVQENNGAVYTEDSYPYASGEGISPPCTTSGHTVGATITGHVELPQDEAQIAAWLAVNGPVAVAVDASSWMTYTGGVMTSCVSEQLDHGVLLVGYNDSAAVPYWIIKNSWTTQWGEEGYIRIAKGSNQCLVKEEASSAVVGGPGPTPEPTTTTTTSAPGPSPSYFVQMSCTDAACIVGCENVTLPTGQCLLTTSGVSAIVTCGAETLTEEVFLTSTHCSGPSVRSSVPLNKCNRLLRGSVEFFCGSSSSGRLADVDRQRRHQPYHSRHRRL
Compound,Potency,"max response, negative = inhibition"
CCOC(=O)N(C)c1ccc(C(O)(C(F)(F)F)C(F)(F)F)cc1,"inconclusive: 31.6 µM [activator, single point]",
COc1ccccc1N1CCN(C(=O)c2cccc3c(=O)c(C)c(-c4ccccc4)oc23)CC1,"inconclusive: 39.8 µM [activator, single point]",
COc1ccc(Nc2oc(-c3ccco3)nc2S(=O)(=O)c2ccc(F)cc2)cc1,active: 25.1 µM,
CCOc1ccccc1CNC(=O)c1cc2oc3ccccc3c2n1C,"inconclusive: 31.6 µM [inhibitor, single point]",
CCc1ccc(C(=O)c2cn(CC(=O)Nc3ccc4c(c3)OCO4)c3ccc(OC)cc3c2=O)cc1,"inconclusive: 39.8 µM [inhibitor, single point]",
Oc1ccccc1-c1nc(/C=C/c2ccccc2Cl)nn1-c1ccccc1,"inconclusive: 39.8 µM [inhibitor, single point]",
COc1cc(NC(=O)c2cccc3c2C(=O)N(C2CCCCC2)C3)cc(OC)c1OC,"inconclusive: 39.8 µM [activator, single point]",
Cc1ccccc1CNC(=O)CCCn1c(=O)c2cccn2c2cccnc21,,inactive: -5.36%
O=C1OC(/C=C/c2ccc(Cl)cc2Cl)=NC/1=C\c1cccs1,active: 25.1 µM,
Cc1cc(-c2csc(NC(=O)c3ccc(C#N)cc3)n2)c(C)n1Cc1ccccc1,active: 10 µM,
O=C(c1ccc(-c2cccc(Cl)c2)o1)N1CCN(c2ccc([N+](=O)[O-])cc2)CC1,"inconclusive: 39.8 µM [inhibitor, single point]",
O=c1cc(-c2ccccc2)nc(SCc2nc(-c3ccccc3Cl)no2)[nH]1,"inconclusive: 20 µM [inhibitor, single point]",
Cc1ccc(CNC(=O)/C=C/c2ccccc2Cl)cc1,,inactive: -2.2%
Cc1cccn2c(=O)c(C(=O)NCc3ccc(F)cc3)c(O)nc12,"inconclusive: 31.6 µM [activator, single point]",
CCOC(=O)c1c(-c2ccc(OC)cc2)oc2ccc(OCc3ccccc3C)cc12,"inconclusive: 3.98 µM [inhibitor, single point]",
CCOC(=O)c1c(C)[nH]c(C)c1C(=O)COC(=O)c1cc2ccccc2cc1OC,"inconclusive: 39.8 µM [activator, single point]",
N#Cc1sc2nc(C3CC3)cc(-c3ccc(Cl)cc3)c2c1N,"inconclusive: 39.8 µM [inhibitor, single point]",
COc1ccc(CNC(=O)CCCN2C(=O)CSc3c2c(C)nn3-c2ccccc2)cc1,"inconclusive: 39.8 µM [activator, single point]",
CCOc1cc(N2CCOCC2)c(OCC)cc1NC(=O)CN1C(=O)NC2(CCc3ccccc32)C1=O (stereo not drawn),"inconclusive: 31.6 µM [activator, single point]",
O=C(CCC(=O)N1CC2CCCN2c2ccccc21)NCc1ccc(Cl)cc1 (stereo not drawn),,inactive: 13%
CCC1CCC(C(=O)NC(C(=O)Nc2cccc(OC)c2)C(C)C)CC1 (stereo not drawn),,inactive: 0.748%

Compound,Potency,"max response, negative = inhibition"
O=C(CCN1C(=O)COc2ccccc21)NCc1cccnc1,"inconclusive: 31.6 µM [activator, single point]",
CCC1=C(c2ccc(C)cc2)S(=O)(=O)N=C1N1CCC(C(=O)Nc2ccccc2F)CC1,,inactive: 15.4%
Cc1ccc(Cn2c(C(=O)NCc3ccccc3Cl)cc3sccc32)cc1,"inconclusive: 39.8 µM [inhibitor, single point]",
CC(=O)N1CCN(c2ccc(NCc3ccc(C(C)C)cc3)cc2)CC1,"inconclusive: 31.6 µM [activator, single point]",
O=C(CN1C(=O)COc2ccc(Cl)cc21)Nc1ccc(F)cc1,,inactive: 1.89%
Cc1ccc(OCCn2cc(/C=C3\C(=O)NN(c4ccccc4)C3=O)c3ccccc32)cc1,active: 10 µM,
COc1cc(Nc2nc(SCC(=O)c3ccc(Br)cc3)nc3ccccc23)cc(OC)c1,"inconclusive: 31.6 µM [inhibitor, single point]",
O=C(c1cc2nc(-c3ccco3)cc(C(F)(F)F)n2n1)N1CCN(c2ccccc2)CC1,"inconclusive: 39.8 µM [activator, single point]",
CS(=O)(=O)N(CC(O)Cn1c2ccccc2c2ccccc21)c1ccccc1 (stereo not drawn),"inconclusive: 31.6 µM [activator, single point]",
Cc1nn(CCC(=O)Nc2cc(F)ccc2F)c(=O)c2nn(-c3ccccc3)c(C)c12,,inactive: -14.9%
N#C/C(=C\c1ccc(-c2ccc(C(=O)O)cc2)o1)C(=O)Nc1ccccc1C(=O)O,,inactive: 1.62%
COc1ccc(N2CC(C(=O)Nc3nnc(SCC(=O)c4ccccc4)s3)CC2=O)cc1 (stereo not drawn),"inconclusive: 15.8 µM [inhibitor, partial curve]",
S=C1NC2=C(CCC/C2=C\c2ccccc2)C(c2ccccc2)N1 (stereo not drawn),"inconclusive: 39.8 µM [inhibitor, single point]",
CCCCCCn1c(SCC(=O)c2c(N)n(C)c(=O)n(C)c2=O)nc2ccccc21,"inconclusive: 15.8 µM [activator, single point]",
CCC1=C(OC(=O)N(CC)CC)N2C(=O)OC(=NCCOC)[C@]2(Cc2ccccc2)[C@H]2C1=CC[C@H]1C(=O)N(CC(=O)OC)C(=O)[C@H]12,"inconclusive: 12.6 µM [activator, partial curve]",
CCOC(=O)c1ccc2c(c1)N(CC(=O)N(C)c1ccccc1)C(=O)c1ccccc1S2,"inconclusive: 25.1 µM [activator, partial curve]",
COc1ccc(-c2cn(-c3ccc(C)cc3)c(S(=O)(=O)CC(=O)Nc3ccc(F)cc3)n2)cc1,active: 15.8 µM,
Nc1c(C(=O)NCc2ccccc2)c2nc3ccccc3nc2n1-c1ccc2c(c1)OCO2,"inconclusive: 39.8 µM [inhibitor, single point]",
O=C(N/N=C/c1cn(-c2cccs2)nc1-c1ccccc1)c1ccccc1O,"inconclusive: 39.8 µM [inhibitor, single point]",
Cc1ccc(N2CCN(/N=C/c3sccc3C)CC2)cc1,"inconclusive: 39.8 µM [inhibitor, single point]",
CCn1c(SCC(=O)c2ccccc2)nnc1-c1ccoc1C,,inactive: 1.32%

Compound,Potency,"max response, negative = inhibition"
O=C(Nc1ccc(-c2nc3cc(Cl)ccc3c(=O)o2)cc1)c1ccco1,"inconclusive: 15.8 µM [inhibitor, partial curve, poor fit]",
Cc1cc(NC(=O)CSc2nc(-c3ccco3)cc(C(F)(F)F)n2)n(-c2ccccc2)n1,"inconclusive: 39.8 µM [activator, single point]",
Cc1cccc(NS(=O)(=O)c2c(C)nc3sccn3c2=O)c1C,,inactive: 6.38%
O=C(NCc1ccccc1Cl)c1cc2c(s1)-c1ccc(Cl)cc1SC2,active: 10 µM,
COc1ccc(OC)c(C(=O)COC(=O)CNC(=O)c2ccccc2)c1,active: 12.6 µM,
CCC1=C2CC[C@H]3C(=O)N(CC(=O)OC)C(=O)[C@H]3[C@H]2[C@@]2(Cc3ccccc3)C(=NCCc3c[nH]c4ccccc34)OC(=O)N2C1=O,"inconclusive: 39.8 µM [activator, single point]",
Cc1ccc(NC(=O)CN2C(=O)CCc3cc(S(=O)(=O)N4CCOCC4)ccc32)cc1F,,inactive: 21.1%
CCc1ccc(-n2nc(C)c3c(C)cc(=O)n(Cc4nc(-c5ccccc5)oc4C)c32)cc1,"inconclusive: 25.1 µM [inhibitor, single point]",
COc1ccc(C(NC(=O)C(C)C)c2c(O)ccc3ccccc23)cc1OC (stereo not drawn),"inconclusive: 25.1 µM [activator, single point]",
COc1ccccc1Oc1ccc2c(c1)C(=O)N(c1ccc(Br)c3cccnc13)C2=O,"inconclusive: 39.8 µM [inhibitor, single point]",
CCN=C1SC(CC(=O)Nc2sc(C)c(C)c2C(=O)OC)C(=O)N1CC (stereo not drawn),"inconclusive: 39.8 µM [activator, single point]",
O=C(CN1N=C(c2ccc(Cl)cc2)CCC1=O)NCCc1ccc(Cl)cc1,"inconclusive: 25.1 µM [activator, single point]",
Cc1cc(C)n(-c2ccc(C(=O)OCC(=O)Nc3ccc(S(=O)(=O)N4CCOCC4)cc3)cc2)n1,"inconclusive: 39.8 µM [activator, single point]",
Cc1cc(O)c2c(c1)C(=O)c1cc(O)cc(O)c1C2=O,"inconclusive: 3.16 µM [inhibitor, single point]",
CCOC(=O)c1c(-c2ccccc2)oc2ccc(NS(=O)(=O)c3cc(C)c(C)cc3C)cc12,active: 7.94 µM,
CN(C)[C@@H]1C(=O)C(C(N)=O)=C(O)[C@]2(O)C(=O)C3=C(O)c4c(O)cccc4[C@](C)(O)[C@H]3C[C@@H]12,,inactive: -3.11%
CCN(CC)c1ccc(-n2c(O)c(C=C3N=c4ccccc4=N3)sc2=S)cc1,"inconclusive: 39.8 µM [inhibitor, single point]",
CN(Cc1ccccc1)S(=O)(=O)c1nnc(NC(=O)c2cccc(Cl)c2)s1,,inactive: -17.2%
CCOc1ccc(C(=O)Nc2ccc(NC(=O)c3cccs3)cc2)cc1[N+](=O)[O-],active: 7.94 µM,
CCOc1ccc(N(CC)S(=O)(=O)c2cc(Br)cc3c2N(C(C)=O)C(C)C3)cc1 (stereo not drawn),"inconclusive: 39.8 µM [activator, single point]",
Cc1ccccc1NC(=O)CSc1nc2nccnc2c(=O)n1CCc1c[nH]c2ccccc12,"inconclusive: 6.31 µM [inhibitor, single point]",
